# The campaign covered roughly 48,000 compounds. About 120 (0.25%) were called active. About 4% were inconclusive and are not listed. Calls come from the whole dose curve; as a rule, active = well fitted activation curve with a large enough effect; inconclusive = small, poorly fitted or top-dose-only effect, or another doubt; inactive = no such curve, though single readings can be large or run the other way. This is a selection; strong and weak results do not stand in their true shares. Where no call is shown, the source filed none.
# Assay: Primary qHTS for Identification of Small Molecule Activators of Huntingtin-Antisense Promoter Activity; note: nearly all actives have a fitted effect of over 55% in size
# Conditions: HEK293 HTT-AS promoter firefly luciferase reporter, 24 h; activity change, positive = activation: at 57.5 µM (top of the series), percent change from vehicle, -100% = no light
# Summary of the method: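 Firefly luciferase readout (Dual-Glo, 10 min RT) after 24 h, 37 °C compound exposure (final up to 57.5 uM) of HEK293 reporter cells cultured 24 h beforehand; PTC124 at 50 uM final as control inhibitor; activity scaled vehicle 0%, zero RLU -100%.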
row,Structure (SMILES),"activity change, positive = activation"
1,COc1ccc(C2c3cc(OC)c(OC)cc3CC(=O)N2c2ccc(C)c(F)c2)cc1 (configuration not stated),-37.6%
2,COc1ccc(C)cc1NS(=O)(=O)c1c(C(=O)N2CCC(C)CC2)c(C)n(C)c1C,inactive: -11.3%
3,CCOc1c(Br)cc(C2CC(=O)Nc3cc4c(cc32)OCO4)cc1OC (configuration not stated),inactive: -38.2%
4,Cc1ccc(C)c(N2CCN(CCCNC(=O)c3cnn(-c4ccc(F)cc4)c3C3CCN(C(=O)OC(C)(C)C)CC3)CC2)c1,inactive: -1.56%
5,CCOc1ccc(OCC)c(NC(=O)c2cc3ccccn3n2)c1,30.6%
6,CN(C(=O)CSc1nnc(COc2ccccc2)o1)c1ccccc1,-14.9%
7,COC[C@H](NC(=O)c1cnc(C)s1)C(=O)N[C@@H](COC)C(=O)N[C@@H](Cc1ccccc1)C(=O)[C@@]1(C)CO1,inactive: -63.5%
8,COC(=O)c1ccccc1NC(=O)c1nc(-c2ccc(Cl)cc2)n2c1CCCCC2,8.84%
9,CC(C)(C)C1CCc2onc(C(=O)Nc3sc4c(c3C#N)CCCC4)c2C1 (configuration not stated),-1.79%
10,Cc1cc(C)c(OCCOCCn2c(-c3ccc(Cl)cc3)nc3ccccc3c2=O)c(C)c1,40.3%
11,Cc1ccc(C2CCN(C(=O)c3cnn(-c4ccc(C)c(C)c4)c3C3CCN(C(=O)OC(C)(C)C)CC3)C2)cc1 (configuration not stated),inactive: -2.62%
12,Cc1ccc(Cn2c(=O)c3cccnc3n(CC(=O)Nc3cc(Cl)ccc3C)c2=O)cc1,inactive: 12.6%
13,Cc1cc(Cl)ccc1-n1c(CCC(=O)O)ccc1-c1cccs1,-5.12%
14,CCc1c(C)c2ccc(O)c(CN3CCN(c4cc(Cl)ccc4C)CC3)c2oc1=O,-1.76%
15,COc1cccc(CN2C(=O)CN(C3CCCCC3)C(=O)C2c2ccc(OC(C)C)c(OC)c2)c1 (configuration not stated),-1.64%
16,CC(C)N(Cc1ccccc1)C(=O)c1nc(-c2ccc(Cl)cc2)n2c1CCCCC2,-33.8%
17,CCN1CCN(Cc2c(O)ccc3oc(C)c(C(=O)Nc4cccc(Cl)c4C)c23)CC1,-5.93%
18,CCOC(=O)c1ccc(N2CCN(c3cc(C)ccc3C)CC2)c(NC(=O)Nc2ccc(Cl)cc2)c1,-9.15%
19,COc1cc(OC)c(NS(=O)(=O)c2ccc3c(c2)CCCN3C(C)=O)cc1Cl,inactive: -22.9%
20,COc1ccc(-c2nc(SCCOc3ccccc3Cl)n3[nH]c(=O)cc3n2)cc1,15.3%
21,Cc1ccc(Nc2nc3ccccc3c3nncn23)c(Cl)c1,-1.22%
22,O=C(CC1C(=O)N(c2ccccc2)C(=O)N1Cc1ccc(F)cc1)Nc1cccc(F)c1 (configuration not stated),-17%
23,CCOC(=O)c1cccc(NC(=O)c2cc3ccccn3n2)c1,-15.1%
24,COC(=O)c1cc2oc3ccccc3c2n1CC(=O)Nc1ccc(Cl)cc1F,41.2%

row,Structure (SMILES),"activity change, positive = activation"
1,CCCN1CCN(CCCNC(=O)c2ccc3c(c2)sc2nc(-c4ccc(C)cc4)cn23)CC1,inactive: -1.44%
2,CC1CCC(N2CC(=O)N(C3CCCC3)C(c3ccc(Cl)cc3)C2=O)CC1 (configuration not stated),-8.84%
3,CCN1CCN(Cc2c(O)ccc3oc(C)c(C(=O)Nc4ccc(OC)c(Cl)c4)c23)CC1,-1.86%
4,Cc1cccc(N2CCN(S(=O)(=O)c3ccc4oc(=O)c5ncn(C)c5c4c3)CC2C)c1 (configuration not stated),1.03%
5,COc1ccc(N(C(=O)COc2c(C)cccc2C)S(=O)(=O)c2ccc(Cl)cc2)cc1,-33.4%
6,Cc1c(NC(=O)c2cc(-c3cccc(Cl)c3)on2)c(=O)n(-c2ccccc2)n1C,3.95%
7,CC(=O)OC(COc1ccccc1)Cn1cnc2cc(C)c(C)cc21 (configuration not stated),-22%
8,Cc1cc2oc(C(=O)Nc3sc4c(c3C(=O)NCC3CCCO3)CCC4)cc(=O)c2cc1C (configuration not stated),inactive: -14.5%
9,O=C(Nc1ccc(N2CCN(CCOc3ccc(Cl)cc3)CC2)c(C(=O)O)c1)c1ccc(F)cc1,inactive: -24.7%
10,CCCOc1cccc(C(=O)Nc2ccc(-c3nc4ccccc4s3)c(Cl)c2)c1,inactive: 10.9%
11,C=C(C)CSc1nc2sc3c(c2c(=O)n1CCCC)CCCC3,8.23%
12,COc1ccc2c(c1)CCc1c(C(=O)Nc3ccccc3C(F)(F)F)noc1-2,21.9%
13,CC(C)Oc1ccc(CNC(=O)Cn2c(=O)oc3ccccc32)cc1,-6.36%
14,Cc1nn(Cc2ccc(Cl)cc2)c(C)c1NC(=O)c1noc2c1CCc1ccccc1-2,-39%
15,c1ccc(-c2nnc(CN3CCN(c4ccccc4)CC3)o2)cc1,-9.15%
16,COc1cccc(-c2cc(C(=O)Nc3ccn(Cc4ccc(C)cc4)n3)no2)c1,1.03%
17,COc1ccc(C2C(=O)N(C3CCCCCC3)CC(=O)N2CCC2=CCCCC2)cc1 (configuration not stated),-25.1%
18,Cc1ccc(N(CC(=O)N2CCN(c3cccc(Cl)c3)CC2)S(=O)(=O)c2c(C)noc2C)cc1,inactive: -30%
19,COc1ccc(NC(=O)C(Cc2c[nH]c3ccccc23)NC(=O)OC(C)(C)C)cc1 (configuration not stated),-6.4%
20,CCCCc1ccc(NC(=O)c2cc(-c3ccc(C)c(F)c3)on2)cc1,-3.54%
21,COc1ccc(C2=C(Nc3ccc(Br)c(C)c3)c3ccccc3C2=O)cc1,-36.4%
22,CCN(CC)C(=O)c1sc(NC(=O)C2c3ccccc3Oc3ccccc32)c(C(=O)OC(C)C)c1C,-12.9%
23,CCOc1ccc(Nc2nc3ccccc3c3nnc(CC)n23)cc1,-7.55%

# From PubChem BioAssay AID1508624 (National Center for Advancing Translational Sciences (NCATS), 2021)
